# ± gives the standard deviation. Only a part is listed here, and it is no random draw.
# Tested on: MIWI (PIWIL1) piRISC loaded with piRNA #1 (30 nt)
# Assay: pre-steady-state target cleavage rate (min^-1); MIWI and MILI are mouse PIWI proteins and EfPiwi is from a freshwater sponge; tags in brackets are library labels; higher = faster piRNA-guided slicing of the target
# Details: guide: piRNA #1 5'p-UGAGGUAGUAGGUUGUAUAGUAUCCAGAGG; auxiliary factor: 500 nM mouse GTSF1
# Procedure, shortened: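 The pre-steady-state cleavage rate was calculated from a burst-and-steady-state fit. Data came from Cleave-'n-Seq, in which […] transcribed, DNA-blocked target RNA library was mixed with 1 nM active affinity-purified piRISC carrying one synthetic guide, with or without 500 nM GTSF1 partner protein, in HEPES–potassium acetate buffer at 33 °C for 0–8 or 0–960 min. Uncleaved targets were sequenced and normalised to depth and to weakly complementary targets, three trials were pooled, and k3 was capped at 0.0001 min^-1.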
# 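Also: 1 nM active piRISC with 0.1 nM target library at 33 °C single turnover.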
row,Sequence,pre-steady-state target cleavage rate
1,CCUCUGGAGUACUAUACAACCUACUACCUCA,0.572 ± 0.046
2,GCUCUGGAUACUAUACAACCUACUACCUGA,1.04 ± 0.14
3,GGAGACCUAACUAUACAACCUACAACCACA,0.196 ± 0.055
4,GGAGAGGAUACUAUACAACGUACUACGUCA,0.483 ± 0.059
5,GGAGACCAUACUAUUCAACCUAGUACCUCA,0.417 ± 0.027
6,GGAGUGGAUACAAUACAACCUACUACCACA,0.526 ± 0.045
7,GGUCUGGAUACUAUACAACCUACAUACCUCA,0.935 ± 0.071
8,CCUCUGCAUACUAUACAACCUUCUACCUCA,0.678 ± 0.035
9,GGUCUGGAAACAAUACAACCUACUACCUCA,1.28 ± 0.1
10,GGAGACCUAUGUAUCCAACCUACUACCUCA,0.0106 ± 0.0018
11,GGUCUGGAUUCUAUUCAACCUACUACCUCA,1.52 ± 0.1
12,GGUCUGGAUACUAUACAACCUACUCCUCA,0.00309 ± 0.0017
13,GGAGACGAUACUAUACAACCUAUUACCUCA,1.6 ± 0.12
14,GGAGACGAUACUAUACAAACCUACUACCUCA,0.00307 ± 0.0031
15,GCUCAGGAUACUAUACUACCUACUACCUCA,1.54 ± 0.093
16,CGUCUGGAUACUAUACAUCCUACUACCUCA,1.8 ± 0.098
17,GGAGUCGAUACUUUACAACCUACUACCUCA,1.53 ± 0.097
18,GGAGACCUAUCUAUACAACCUACUUGGUCA,0.0045 ± 0.0026
19,GGAGACCUUACUAUACAACAUACUACCUCA,0.85 ± 0.058
20,GGACUGGAUCACUAUACAACCUACUACCUCA,1.41 ± 0.15

row,Sequence,pre-steady-state target cleavage rate
1,GGAGACCUAUGUAUACAAGCUACUACGUCA,0.0294 ± 0.0057
2,GGAGAGGAUACUAUACAACCAACUACGUCA,0.0794 ± 0.0087
3,GGAGACCUAUGUAUACAAGCUAGUACCUCA,0.0118 ± 0.0023
4,GGAGACCUAAACUAUACAACCUACUACCUCA,1.19 ± 0.11
5,GGUCUGGAUACUAUACUACCUACUACGUCA,0.855 ± 0.053
6,GGUCUGGAUUCUAUACAACCUUCUACCUCA,0.7 ± 0.034
7,GGAGACCUUACUUAUCAACCUACUACCUCA,0.014 ± 0.0046
8,GGAGACCUUACUAUACAACCUACGUACCUCA,0.467 ± 0.05
9,GCUCUCGUUACUAUACAACCUACUACCUCA,1.45 ± 0.096
10,GGAGACCUUACUAUACAUCCUACAACCUCA,0.424 ± 0.041
11,GGAGUGGAUACCAUACAACCUACUACCUCA,1.72 ± 0.084
12,GGAGACCAUACUAAACAACCUACUAGCUCA,0.507 ± 0.059
13,GGAGACCUAAGCUAUACAACCUACUACCUCA,0.856 ± 0.07
14,GGAGACCUUACUAAACAAGCUACUACCUCA,0.473 ± 0.044
15,GCUCUGCAUAGUAUACAACCUACUACCUCA,1.77 ± 0.11
16,GGUCUGGAUACUAUACAAGCUAGUACCUCA,0.306 ± 0.062
17,GGAGAGGAUACUAUACAACCUCCUACCUCA,0.964 ± 0.037
18,CCUCUGGCAUACUAUACAACCUACUACCUCA,2.31 ± 0.12
19,GGAGACGAUACUUUACAUCCUACUACCUCA,1.14 ± 0.076
20,GGACUGGAUUCUAUACAACCUACUACCUCA,1.63 ± 0.11

# Source: the supplement of paper PMC10338343
